Data reported in PubChem BioAssay AID686979 (National Center for Advancing Translational Sciences (NCATS), 2013).
Several values for one entry are separate records, joined by “and”; a condition that tells them apart may be missing. Equal entries are not always repeated. About 50,000 (12%) of roughly 420,000 compounds were called active. The inconclusive results got no clear call from the source; some entries with a clear call stand among them for comparison. Calls follow the shape of the dose curve; as a rule, active = well fitted inhibition curve with a large enough effect; inconclusive = small, poorly fitted or top-dose-only effect; inactive = flat fitted curve, though single readings scatter. No potency is given beside an inconclusive call; the fits are too rough. More than one record can exist for a structure, and the calls need not agree.

Assay: qHTS for Inhibitors of human tyrosyl-DNA phosphodiesterase 1 (TDP1): qHTS in cells in presence of CPT; also: nearly all actives have a fitted effect of over 55% in size
Details: chicken DT40 Tdp1-/-;hTDP1 cells + 20 nM CPT, ATP luminescence, 48 h; activity change, negative = growth inhibition: at 46.2 µM (top of the series) unless noted
How it was run: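 Chicken DT40 Tdp1-/- cells complemented with human TDP1, 400 cells/well, exposed to compounds plus 20 nM camptothecin for at least 48 h at 37 C; viability read as ATP content by CellTiter-Glo luminescence.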
% is scaled to controls: 0 for no effect and ±100 for the full control effect; potency is read from the fitted curve at half-maximal effect; tags tell the direction and shape of the fitted curve.

SMILES | Potency | activity change, negative = growth inhibition
Cc1ccc(Cl)cc1N1CCN(c2ncnc3c2nc2n3CCCC2)CC1 | inconclusive [inhibitor, single point] | 
CCOC(=O)c1cnc2c(ccc3ccccc32)c1Nc1ccc(N(C)C)cc1 | active: 14.6 µM | 
COc1ccc(Cl)cc1C(=O)C1CCCN(CCO)C1 (stereo not given) |  | inactive: -10.7%
O=C(C1CCN(c2nc3ccc(Br)cc3s2)CC1)N1CCC2(CC1)OCCO2 | active: 11.6 µM | 
Cc1ccc(S(=O)(=O)N2CCCc3cc(NS(=O)(=O)c4cc(C)ccc4C)ccc32)cc1 | inconclusive [inhibitor, single point] | 
c1ccc(N2CC3(CCNCC3)C2)cc1 | inconclusive [inhibitor, partial curve] | 
CCCCCn1c(=O)c(C(=O)NCc2ccccc2Cl)c(O)c2ccccc21 | inconclusive [inhibitor, single point] | 
COc1cc(/C=C/c2ccc3ccccc3[n+]2C)cc(OC)c1OC | inconclusive [inhibitor, single point] | 
Cc1cccc(OCC(=O)N2CCN(CCc3ccccn3)CC2)c1 |  | inactive: -12.9%
Cc1cccc(N2C(=O)NC(=O)/C(=C\c3ccc4c(c3)CCCN4Cc3ccccc3)C2=O)c1 | inconclusive [inhibitor, single point] | 
c1ccc2c(CNC3CCCCCC3)c[nH]c2c1 | active: 3.26 µM | 
C=C1C2CC[C@@]3(C)C(c4ccoc4)OC(=O)C[C@@]13OC1CC(=O)C(C)(C)C(C(OC(C)=O)C(=O)OC)[C@@]12C (stereo not given in full) | inconclusive [inhibitor, single point] | 
Cc1cccc(CNCCc2c[nH]c3ccccc23)c1 | active: 16.4 µM | 
COC(=O)C1CN(C#N)N(c2ccc(Cl)cc2)C12c1ccccc1-c1ccccc12 (stereo not given) | active: 3.26 µM | 
CCOC(=O)C1SC2(C(F)(F)C(F)F)CC1(O)c1c(c(OC)c3occc3c1OC)O2 (stereo not given) | inconclusive [inhibitor, partial curve] | 
Cc1ccc2c(Cl)cc(Cl)c(O)c2n1 | active: 6.68 µM and active: 2.91 µM | 
O=C1CC(=O)N(Cc2ccccc2)C(=S)N1 |  | inactive: -7.42%
CC/C(=N\N1CCCCCC1)c1c(O)n(-c2ccc(C)cc2)c(=O)[nH]c1=O | inconclusive [inhibitor, single point] | 
O=C(CN1CC=C(c2ccccc2)CC1)Nc1cc(Cl)ccc1Cl | inconclusive [inhibitor, single point] | 
COC[C@H]1OC(=O)c2coc3c2[C@@]1(C)C1=C(C3=O)[C@H]2CCC(=O)[C@@]2(C)C[C@H]1OC(C)=O | active: 9.44 µM | 
CCN(CC)C(=O)c1ccc(NC(=O)c2cccc(F)c2)cc1 | inconclusive [inhibitor, single point] | 
O=c1[nH]c(=O)n(-c2ccc(Cl)cc2)c(O)c1C=Nc1ccc(S(=O)(=O)Nc2nccs2)cc1 |  | inactive: -6.22%
C[C@H](CO)N1C[C@H](C)[C@@H](CN(C)C(=O)Nc2ccc(C(F)(F)F)cc2)Oc2c(NS(=O)(=O)c3cccs3)cccc2C1=O | inconclusive [inhibitor, single point] | 
Cc1ccc(NC(=O)CCNC(=O)N2C[C@H]3C[C@@H](C2)c2cccc(=O)n2C3)c(C)c1 |  | inactive: -0.568%

SMILES | Potency | activity change, negative = growth inhibition
Nc1c2c(nc3sc4c(c13)CCCC4)CCCCC2 | inconclusive [inhibitor, single point] | 
COC(=O)C1=C(c2ccc(F)cc2F)C[C@@H]2CC[C@H]1N2C(=O)NCC1CC1 |  | inactive: -4.37%
CCC1=Nc2cc(C(=O)N3CCC4(CC3)OCCO4)ccc2Sc2ccc(C)cc21 | inconclusive [inhibitor, single point] | 
CCOC(=O)c1oc2ccc(S(=O)(=O)n3nc(-c4ccc(Br)cc4)cc3N)cc2c1C | active: 20.6 µM | 
COc1ccc(C(=O)C2CCCN(Cc3ccccn3)C2)c(OC)c1 (stereo not given) | active: 20.6 µM | 
COc1ccc(C(=O)Nc2nnc(S(=O)(=O)N(CC(C)C)c3ccc(C)cc3)s2)cc1OC | inconclusive [inhibitor, single point] | 
COC(=O)c1c(N)n(Cc2ccc(OC)cc2)c2nc3ccccc3nc12 | inconclusive [inhibitor, single point] | 
CCCCn1c(=O)c(C(=O)NCc2ccco2)c(O)c2ccccc21 | inconclusive [inhibitor, single point] | 
CCC1/C=C/C=CCC(C)C(O)[C@@](C)(O)C(=O)C(C)C(O)C(C)C(=O)C(C)C(O)C(C)C=CC(=O)O[C@H]2C(C)C(CC1)O[C@]1(CCC(C)C(CC(C)O)O1)C2C (stereo not given in full) | active: 0.0073 µM | 
CC(C)(C)OC(=O)N1CCCC(C(=O)Nc2cccc(C(=O)NCCc3ccccc3)c2)C1 (stereo not given) | active: 14.6 µM | 
COc1ccccc1-n1c(-c2ccoc2)nc2ccccc2c1=O | active: 11.6 µM | 
Cc1cccc2c3c(ccc12)C1=C(C(=O)C3=O)C(C)CO1 (stereo not given) | active: 4.11 µM | 
COC(=O)C1=C(c2ccc(C(C)=O)cc2)C[C@@H]2CC[C@H]1N2C(=O)N1CCC(C)CC1 | active: 18.4 µM | 
CCCn1c(C)c(C(=O)c2cccc3ccccc23)c2ccccc21 | inactive and active: 26.6 µM | 
COc1ccc(CCNC(=O)CCn2c(=O)c3ccccc3n(Cc3ccc(Cl)cc3)c2=O)cc1OC | active: 18.4 µM | 
CNc1ccc2oc(C[C@@H]3OC4(CC[C@@H]3C)O[C@H]([C@@H](C)C(=O)c3ccc[nH]3)[C@H](C)C[C@H]4C)nc2c1C(=O)O (stereo not given in full) | active: 2.31 µM | 
COC1CC2C=C(C)C=CC=CC(=O)NC(c3ccccc3)CC=CCCC(O)CC(=O)C2=C1O (stereo not given) | active: 0.461 µM | 
c1ccc(N2CC[C@@]3(CCCNC3)C2)nc1 | inconclusive [inhibitor, single point] | 
COc1ccccc1OCCCn1cc(C(=O)c2ccco2)c2ccccc21 | active: 18.4 µM | 
CC(=NCc1ccc2c(c1)OCO2)c1c(O)n(C)c(=O)n(C)c1=O | inconclusive [inhibitor, partial curve] | 
CCOc1cc(-c2ccc(N)c(OCC)c2)ccc1N | active: 11.6 µM | 
CCOP(=O)(OCC)C(NC(=O)c1ccc(C)cc1)C(Cl)(Cl)Cl (stereo not given) |  | inactive: 18.9%
CCCN1CCCC(C(=O)c2cc(C)c(OC)c(C)c2)C1 (stereo not given) | inconclusive [inhibitor, single point] | 
COC(=O)C1=C(c2ccccc2OCc2ccccc2)C[C@@H]2CC[C@H]1N2C(=O)NCc1ccc(N(C)C)cc1 | inconclusive [inhibitor, single point] | 

SMILES | Potency | activity change, negative = growth inhibition
CSc1ccccc1C(=O)C1CCCN(Cc2ccn[nH]2)C1 (stereo not given) |  | inactive: -5.98%
CC[C@H]1CC2CN3CCc4c([nH]c5ccccc45)C(C(=O)OC)(C2)C13 (stereo not given in full) | inconclusive [inhibitor, single point] | 
Cc1nc(SCc2c(Cl)cccc2Cl)nc(OC(=O)N(C)C)c1C |  | inactive: -37.4%
CCC(=O)OC1CCC2C3CCC4CC(=O)C=CC4(C)C3CCC12C (stereo not given) |  | inactive: -71%
CCCCCCCCCc1ccc(OCCOCCO)cc1 | active: 2.99 µM | 
COc1ccc2ccccc2c1CNCCc1ccccc1 | active: 23.1 µM | 
COc1ccc(-c2nn(-c3ccccc3)cc2C(=O)N2c3ccc(C)cc3C3CN(C)CCC32)cc1 (stereo not given) | inconclusive [inhibitor, single point] | 
CCCCn1nnnc1C(CCc1ccccc1)N1CCC2(CC1)C(=O)NCN2c1ccccc1 (stereo not given) | inconclusive [inhibitor, single point] | 
c1ccc2c(c1)sc1ccccc12 | inconclusive [inhibitor, single point] | 
COC(=O)C1=C(c2ccc(F)cc2OCc2ccccc2)C[C@@H]2CC[C@H]1N2C(=O)NCCNC(C)=O | inconclusive [inhibitor, single point] | 
Cc1ccc(C(O)(C(=O)OC(C)C)C(O)c2ccc(F)cc2)cc1 (stereo not given) | inconclusive [inhibitor, single point] | 
CN1C(=O)/C(=C\N2CCc3ccccc32)C(=O)NC1=S | inconclusive [inhibitor, single point] | 
CC(C)CCC[C@@H](C)[C@H]1CC[C@H]2[C@@H]3C(=O)C=C4C[C@@H](O)CC[C@]4(C)[C@H]3CC[C@]12C | inconclusive [inhibitor, single point] | 
Cn1c(O)c(C=NCCc2c[nH]c3ccccc23)c(=O)n(C)c1=O |  | inactive: -26.1%
CN(c1ccccc1)c1ccc([N+](=O)[O-])c2nonc12 | inconclusive [inhibitor, single point] | 
O=C1NC(=O)C2(CCN(c3ccccc3)CC2)C(=O)N1 |  | inactive: 8.4%
O=C1N[C@@H](Cc2ccccc2)C(=O)N2[C@H]1C[C@H]1c3ccccc3N(OOSc3ccccc3)[C@H]12 | active: 20.6 µM | 
O=C(CCc1ccccc1)N1Cc2cc(-c3cccc(F)c3)ccc2-n2nncc2C1 | inconclusive [inhibitor, single point] | 
CCN1C(=O)/C(=C/c2ccc3c(c2)CCN3CCCCl)C(=O)NC1=S | inconclusive [inhibitor, single point] | 
CCOc1cc2c(cc1OCC)-n1cccc1C(c1ccc(C(C)C)cc1)NC2 (stereo not given) | active: 8.2 µM | 
CCOC(=O)[C@]12Cc3cc(Cl)ccc3[C@H]1N(C1CCCCC1)C(=O)c1cc(OC)ccc12 | active: 0.517 µM | 
c1ccc(C(c2ccccc2)c2ccncc2)cc1 | inconclusive [inhibitor, single point] | 
